Three substances from paper PMC5155276 can be followed below.

Protein sequences, listed by entry. Tags and fused reporters are not part of them.
UniProt P25025: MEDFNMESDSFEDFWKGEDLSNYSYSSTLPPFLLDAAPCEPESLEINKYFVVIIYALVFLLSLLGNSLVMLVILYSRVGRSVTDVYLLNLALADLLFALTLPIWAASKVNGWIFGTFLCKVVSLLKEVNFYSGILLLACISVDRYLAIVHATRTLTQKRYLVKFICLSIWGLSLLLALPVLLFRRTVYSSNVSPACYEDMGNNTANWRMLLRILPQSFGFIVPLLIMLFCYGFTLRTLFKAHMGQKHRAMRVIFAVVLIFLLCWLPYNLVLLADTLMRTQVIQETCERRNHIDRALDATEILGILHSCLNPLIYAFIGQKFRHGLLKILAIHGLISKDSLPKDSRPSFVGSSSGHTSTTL
UniProt Q96HR9: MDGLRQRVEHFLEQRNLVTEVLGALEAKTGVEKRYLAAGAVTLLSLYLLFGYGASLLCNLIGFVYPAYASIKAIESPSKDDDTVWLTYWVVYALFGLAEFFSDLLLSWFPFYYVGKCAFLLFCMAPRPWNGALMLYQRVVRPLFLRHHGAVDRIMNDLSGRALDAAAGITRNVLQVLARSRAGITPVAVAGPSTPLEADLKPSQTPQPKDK
UniProt Q00765: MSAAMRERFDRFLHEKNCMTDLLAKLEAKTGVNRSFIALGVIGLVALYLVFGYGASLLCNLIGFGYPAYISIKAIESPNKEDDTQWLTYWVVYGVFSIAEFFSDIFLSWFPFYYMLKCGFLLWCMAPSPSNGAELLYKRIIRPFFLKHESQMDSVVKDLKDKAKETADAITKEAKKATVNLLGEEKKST

Assay [1] deals with T1, HA-tagged CXCR1 (human (PCR from genomic DNA of HEK293 cells)) (UniProt P25024).
T1 sequence: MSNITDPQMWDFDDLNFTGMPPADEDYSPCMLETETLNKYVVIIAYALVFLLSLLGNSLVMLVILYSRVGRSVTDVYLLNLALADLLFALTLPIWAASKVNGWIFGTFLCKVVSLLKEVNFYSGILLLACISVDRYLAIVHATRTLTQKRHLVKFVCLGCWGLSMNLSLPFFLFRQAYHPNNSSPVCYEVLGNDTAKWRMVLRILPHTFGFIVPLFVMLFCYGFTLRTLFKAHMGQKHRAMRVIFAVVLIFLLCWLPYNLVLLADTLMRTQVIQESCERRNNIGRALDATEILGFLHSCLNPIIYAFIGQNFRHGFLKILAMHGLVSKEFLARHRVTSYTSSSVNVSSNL
The experiment in a line: co-IP; HEK293 cells co-transfected with HA-tagged CXCRs and REEP plasmids; lysis in 50 mM Tris-HCl pH 7.5, 150 mM NaCl, 1% Triton X-100; anti-HA antibody-conjugated beads, 4 °C, 2 h; western blotting; in Fig. 5B cells were treated with IL-8 for the indicated times before lysis. A general note: In western blotting, separated proteins are transferred to a membrane and probed.

Assay [2] has as its target HA-tagged CXCR2 (human (PCR from genomic DNA of HEK293 cells)) (UniProt P25025). The description is as above.
Assay [3] concerns the target REEP6 (human) (UniProt Q96HR9). The assay can be described thus: co-IP; immunoprecipitation with cells expressing both REEP5 and REEP6 (Supplementary Fig. S2); bait and tags not shown.

These are yes or no findings as the source states them, for the method shown. In cells and extracts the contact can be indirect. Some entries that bind do so weakly or less than the wild type. For part of these data: Tags and fused reporters may be left off the sequences shown.

Consider FLAG-REEP6 (from UniProt Q96HR9 1-211), for which, in assay [1], the binding result was “binds”.

As for REEP5 (from UniProt Q00765 1-189), the binding result in assay [2] is listed as “no binding”; in assay [1] it was “binds”; in assay [3], “binds”.

For REEP6 (from UniProt Q96HR9 1-211), the binding result in assay [2] was “no binding”; in assay [1] it was “binds”.
